Measured values: publication PMC12136788
Some of the results follow.

T1: UNK ZnF1-6 (called full-length) (human, UniProt Q9C0B0 30-357)
T1 sequence: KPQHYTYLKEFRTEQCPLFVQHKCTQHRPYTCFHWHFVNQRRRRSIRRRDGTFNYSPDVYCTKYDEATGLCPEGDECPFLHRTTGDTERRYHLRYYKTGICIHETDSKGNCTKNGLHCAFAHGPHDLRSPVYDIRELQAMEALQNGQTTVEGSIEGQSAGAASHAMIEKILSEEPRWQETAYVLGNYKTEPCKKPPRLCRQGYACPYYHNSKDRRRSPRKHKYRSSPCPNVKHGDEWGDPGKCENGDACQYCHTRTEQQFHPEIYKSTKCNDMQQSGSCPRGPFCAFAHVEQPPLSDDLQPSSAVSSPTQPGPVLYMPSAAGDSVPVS

B1: chr12:71585298:71585408:+|3pUTR|ENSG00000139292|unk|FALSE|unique (ssRNA)
RNA: GGGAGUUCUACAGUCCGACGAUCUUGUUAACUCACUCAUAUUGAGAUCAUUUUUAGAGAUACCAGGUUUUAUGUAUCAGCACUAGAUGGUUCCACCCUCAUGGGAUAAAACUGCUUACAAGUAUUUUGAAAGAAAAACUGACCCAACAGAGGAUUGAGCAUCA
B2: ENSG00000146918:stop:overlap|stop_codon|ENSG00000146918|stop_codon|NA|stop_codon (ssRNA)
RNA: GGGAGUUCUACAGUCCGACGAUCGGGCUCUAACUCCUGGACUCCUGGACUCAAUCUAUCCUUCUGCCUCAGUCCCAAUUGGCUAGGACUGCAGGCACACACCACCAGACCCAGCUAAUGUAAUUUCUAUCUAUAUGUGUCUUUCAACAGAGGAUUGAGCAUCA
B3: ENSG00000198589:be:win_6501|CDS|ENSG00000198589|bound_else_gene|NA|bound_elsewhere_windowed (ssRNA)
RNA: GGGAGUUCUACAGUCCGACGAUCCUAUCUACCUCGUGUUGGCGUUGGAACAAGUUUUGGAUUGCCUCAAACCAGACGUAUUUCAUUAGCUAGUCCACGUCAGCUUUUUAAGGCUUCUAAUAUGACCCAGCGAUGGCAACACAGCAACAGAGGAUUGAGCAUCA
B4: chr1:169124931:169125019:+|5pUTR_CDS|ENSG00000143153|msi1_unk|total|mutant (ssRNA)
RNA: GGGAGUUCUACAGUCCGACGAUCGAAAUUUCCUUUCGUCCUAAUGAUCCCAAGAGCUAUGAGGCAUAUGUACUGAACACCGUCCGGUUCCUGGAAAAGUACAAAGAUUCAGCCCAGAGGGAUGACAUGAUUUUUGAAGAUUGUCAACAGAGGAUUGAGCAUCA
B5: ENSG00000198589:be:win_2801|CDS|ENSG00000198589|bound_else_gene|NA|bound_elsewhere_windowed (ssRNA)
RNA: GGGAGUUCUACAGUCCGACGAUCAUAUAUUUAGGGAACAGCAAGGAAAAGUUGAUGAAGAAAUAGGGCUGUGUUCUUCAACUUCAGUUCAAGCAGCCUCUGGCAUUAGAAGGGAUAUUAAUGUUUCAGUAGGAUCCCAGCAACCAACAGAGGAUUGAGCAUCA
B6: chr11:59152587:59152688:+|CDS|ENSG00000166801|msi1|total|mutant (ssRNA)
RNA: GGGAGUUCUACAGUCCGACGAUCAUUGAAAACUUCAAGAAAAAAAUGAAAGUAAAAAAUGGGGAAACAUUAUUUGAAUUGCACCGAACAACGUUUGGGAAAGUAACAAAAAAUUCUUCUUCGAUUAAAGCCGUGAAACUUCUUCAACAGAGGAUUGAGCAUCA
B7: chr4:124666837:124666938:-|3pUTR|ENSG00000151458|msi1|total|mutant (ssRNA)
RNA: GGGAGUUCUACAGUCCGACGAUCAAUGAUUUCUUGGCAGUUUAAAAAAAAUAUUUUACCGCCGUUCCGGGAGCUGCUUUAAGCCGUUUAAAUCUGGAUUUUCCCAGCCGAAUUCUUCUCAUCUCUGGCUAAACAUGUCAGAACCAACAGAGGAUUGAGCAUCA
B8: chr1:86745841:86745942:+|3pUTR|ENSG00000097033|msi1|FALSE|bound_elsewhere (ssRNA)
RNA: GGGAGUUCUACAGUCCGACGAUCAUGGUGCAGUUCAGAAUUGUUUAAAUAAGCUCUGUGCCACUGAGCUUAAUCUGAAAGUAUAGUGACAUGUGAAGGAUGCACAUAUGAAUGAAAAACUAAAAUAAUUGUAGGCUCUUCUAUCAACAGAGGAUUGAGCAUCA
B9: chr12:26337790:26337891:-|3pUTR|ENSG00000123104|unk|FALSE|unique (ssRNA)
RNA: GGGAGUUCUACAGUCCGACGAUCAAGAUCUAUGUAGAAUAUAAAGGAAGCCUGAACCAAUCCUUCCACAUACUGUUAAGAUGUAGACUUGGAACAAAGCUGUUGGGACCCAGAGCAAUGAAUUUUUGAACUGAAGCUACUGGUCAACAGAGGAUUGAGCAUCA
B10: chrX:150470157:150470258:+|CDS|ENSG00000013619|unk|total|mutant (ssRNA)
RNA: GGGAGUUCUACAGUCCGACGAUCUCCAAAUGAGCCCGAUCUUGAGAAGAUACUGGGGACGAAGCCAGAAGAGCCACUGGUUUCCGAUCAUCCCCAGGCAACCCUAAGCACAACUCCCAAGCCUUCGGUUCAGAUGUCACACUUCAACAGAGGAUUGAGCAUCA
B11: ENSG00000144749:stop:overlap|stop_codon|ENSG00000144749|stop_codon|NA|stop_codon (ssRNA)
RNA: GGGAGUUCUACAGUCCGACGAUCCACUGACAGGACAGCUCCCCGGGAAACAGAGGGUGCCACUGCUGUUGGCACCAAAAAGCUAGGUUUUGUCUACCUCAGUUCUUGUCAUACCAAUCUCUACGGGAAAGAGAGGUAGGAGAGCAACAGAGGAUUGAGCAUCA
B12: chr12:108783210:108783311:-|3pUTR|ENSG00000084112|msi1|FALSE|unique (ssRNA)
RNA: GGGAGUUCUACAGUCCGACGAUCUGUUUAUCCUGCUAUGCAGUUUUACAUUGUGUGUUCACAUCUAUUCCAAGGAGCCUUGCUAGAAACAACACUGGCGGUUCCUGCAGGCCAGGCAGGCAUUGGCCCAUGCUGUGUCCCAUACAACAGAGGAUUGAGCAUCA
B13: chr14:100883974:100884119:-|CDS|ENSG00000254656|unk|total|mutant (ssRNA)
RNA: GGGAGUUCUACAGUCCGACGAUCGUUCUAUAACGACCGUCUGAGAGUUGGCUAUGUCAUCAAUCACCUGUCCGGCUUGGCAUCCGAAUGGGCCAAAGCUCUACUGCAGGAAAACAGCCCCCUGAUCGGAGACUUCCCAGCCUUCAACAGAGGAUUGAGCAUCA
B14: chr7:76328962:76329048:-|3pUTR|ENSG00000170027|msi1_unk|FALSE|overlapping (ssRNA)
RNA: GGGAGUUCUACAGUCCGACGAUCACCUGAGGUCUCAUUCAUCCUUAUGGUUUAGGCCUUGCCAGUUUUCCGAAGUCUCUGAUUAGUUGACAGUAUUAACACUAAAUUGCAGUUUACAGUAUUUCUACAUUACAGCCAUAUGUACAACAGAGGAUUGAGCAUCA

target: T1, UNK ZnF1-6 (called full-length); test: nsRBNS (natural sequence RNA bind-n-seq); RBNS binding buffer (assumed for nsRBNS): 25 mM Tris pH 7.5, 150 mM KCl, 3 mM MgCl2, 0.01% Triton X-100, 500 ug/ml BSA, 20 U/ml SUPERase-In, 4 C; UNK is unkempt and MSI1 is Musashi-1; names of the RNAs are library labels; protein concentration not given here; high values mean tight binding

Binder	binding signal
B1	0.631 enrichment R
B2	0.78 enrichment R
B3	0.514 enrichment R
B4	0.521 enrichment R
B5	0.932 enrichment R
B6	0.333 enrichment R
B7	0.266 enrichment R
B8	0.496 enrichment R
B9	0.446 enrichment R
B10	0.511 enrichment R
B11	0.613 enrichment R
B12	0.668 enrichment R
B13	0.76 enrichment R
B14	0.558 enrichment R
